Source: PubChem BioAssay (NCI)
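Briefly, cells in 96-well plates were exposed to five compound concentrations for 48 h, and endpoints were estimated by linear interpolation. GI50: concentration for 50% inhibition of growth. Definition used: TGI = concentration required for complete inhibition of growth.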

Test system: NCI-H322M lung
Experiment: DTP human tumour cell line panel, 48 h

SMILES	GI50	TGI
CCN(CC)S(=O)(=O)c1ccc(-c2nc(C(Cl)Cl)nc3cc(-c4ccc(F)cc4)nn23)cc1	2.76 µM	10.5 µM
CCCCCCNC(=O)Oc1ccc(/C(=C(/C)c2ccc(Cl)cc2)c2ccc(OCCN3CCCC3)cc2)cc1	2.48 µM	9.02 µM
FC(F)(F)c1cc(Br)cc(-c2cc(-c3ccc4c(c3)OCCO4)[nH]n2)c1	0.62 µM	> 100 µM
CCN(CC)c1ccc2c(c1)Oc1nc(N)c(C#N)c(N)c1C2Sc1ccc(F)cc1 (stereo not given)	1.61 µM	2.97 µM
COc1ccc(C(C)=C(c2ccc(OCCN(C)C)cc2)c2ccc(OCCN(C)C)cc2)cc1	1.97 µM	5.49 µM
